Test [1] concerns the target untagged NBD1 (351–727) (human) (UniProt P13569). The experiment in a line: far-Western, overlay or dot blot; Western blot of untagged NBD1 (900, 300 and 100 ng per lane) on PVDF overlaid with purified NDPK-B (50 μg), probed with NDPK-B specific antibodies; both purified.
For test [2], the target named is cystic fibrosis transmembrane conductance regulator (human (endogenous in 16HBE14o-)) (UniProt P13569). The experiment in a line: far-Western, overlay or dot blot; blot of a CFTR immunoprecipitate or of 16HBE14o- membrane proteins, 100 μg, overlaid with 1 μg recombinant NDPK-B without or with cAMP or 8-Br-cAMP (100 μM); probed for NDPK-B; only the binder purified.
Test [3] concerns the target AMPKα1 (human (endogenous in 16HBE14o-)) (UniProt Q13131). The experiment in a line: co-IP; AMPKα1, AMPKα2 (legend: also pan AMPKα) immunoprecipitates from membrane and cytosol of 16HBE14o- cells, immunoblot for NDPK-A or NDPK-B; beads washed in RIPA with 1 M NaCl.
Test [4] concerns the target cystic fibrosis transmembrane conductance regulator (human (endogenous in 16HBE14o-)) (UniProt P13569). The experiment in a line: far-Western, overlay or dot blot; overlay assay with NDPK-A, without or with cAMP; not shown.
Test [5] shares this target. The experiment in a line: co-IP; CFTR or NDPK-B immunoprecipitates from 16HBE14o- membranes; cells untreated, treated with FSK (10 μM)/IBMX (100 μM) for 30 min, or with PKI (100 nM) or H-89 (1 μM) for 5 min before FSK/IBMX.
Test [6] has as its target AMPKα2 (human (endogenous in 16HBE14o-)) (UniProt P54646). The experiment in a line: co-IP; AMPKα1, AMPKα2 (legend: also pan AMPKα) immunoprecipitates from membrane and cytosol of 16HBE14o- cells, immunoblot for NDPK-A or NDPK-B; beads washed in RIPA with 1 M NaCl. On the technique in general: Immunoblotting shows a protein as a band on a membrane.
Test [7] deals with cystic fibrosis transmembrane conductance regulator (human (endogenous in 16HBE14o-)) (UniProt P13569). The experiment in a line: co-IP; CFTR or NDPK-B immunoprecipitates on beads from lysates of FSK/IBMX-stimulated 16HBE14o- cells, incubated with buffer or peptide for 30 min at 30°C; beads and supernatant immunoblotted (the pair that is blocked).
For test [8] the target is unchanged. The experiment in a line: far-Western, overlay or dot blot; blot of SDS-PAGE-separated 16HBE14o- membrane proteins (100 μg) overlaid with 16HBE14o- cytosol proteins (0.5 mg) in TBS with 5% milk, 60 min at room temperature, without or with cAMP, 8-Br-cAMP or dioctanoyl-cAMP (100 μM); probed for NDPK-B.
The target is the same in test [9]. The experiment in a line: condition: only in the post-avidin supernatant (cell extract depleted of cell surface/integral membrane proteins by avidin precipitation); co-IP; CFTR or NDPK-B immunoprecipitates from the post-avidin supernatant of surface-biotinylated 16HBE14o- cells (lysate depleted of cell surface proteins), ± FSK/IBMX or PKI/FSK/IBMX.
The target in test [10] is nucleoside diphosphate kinase B (human (endogenous in 16HBE14o-)) (UniProt P22392). The experiment in a line: co-IP; CFTR or NDPK-B immunoprecipitates on beads from lysates of FSK/IBMX-stimulated 16HBE14o- cells, incubated with buffer or peptide for 30 min at 30°C; beads and supernatant immunoblotted (the pair that is blocked).
Test [11] has the same target. The experiment in a line: condition: only in the post-avidin supernatant (cell extract depleted of biotin-labelled cell surface proteins); co-IP; CFTR or NDPK-B immunoprecipitates from the post-avidin supernatant of surface-biotinylated 16HBE14o- cells (lysate depleted of cell surface proteins), ± FSK/IBMX or PKI/FSK/IBMX.
The target is the same in test [12]. The experiment in a line: co-IP; CFTR or NDPK-B immunoprecipitates from 16HBE14o- membranes; cells untreated, treated with FSK (10 μM)/IBMX (100 μM) for 30 min, or with PKI (100 nM) or H-89 (1 μM) for 5 min before FSK/IBMX.
Test [13] has as its target human recombinant nucleoside diphosphate kinase B isoform (human) (UniProt P22392). The experiment in a line: SPR; competition: 1 μg untagged NBD1 injected alone or together with peptide (10, 50 or 100 ng) over immobilised NDPK-B on CM5, HBS-EP, 25°C; response read 20 s into the dissociation phase; both purified. For orientation: In SPR one partner is held on a chip, and binding of the other changes the refractive index at the surface.

Sequences of proteins named here, by UniProt entry; tags and fusion partners are left off. A change or cut given only in a name is not applied to a line headed by its entry.
UniProt P13569: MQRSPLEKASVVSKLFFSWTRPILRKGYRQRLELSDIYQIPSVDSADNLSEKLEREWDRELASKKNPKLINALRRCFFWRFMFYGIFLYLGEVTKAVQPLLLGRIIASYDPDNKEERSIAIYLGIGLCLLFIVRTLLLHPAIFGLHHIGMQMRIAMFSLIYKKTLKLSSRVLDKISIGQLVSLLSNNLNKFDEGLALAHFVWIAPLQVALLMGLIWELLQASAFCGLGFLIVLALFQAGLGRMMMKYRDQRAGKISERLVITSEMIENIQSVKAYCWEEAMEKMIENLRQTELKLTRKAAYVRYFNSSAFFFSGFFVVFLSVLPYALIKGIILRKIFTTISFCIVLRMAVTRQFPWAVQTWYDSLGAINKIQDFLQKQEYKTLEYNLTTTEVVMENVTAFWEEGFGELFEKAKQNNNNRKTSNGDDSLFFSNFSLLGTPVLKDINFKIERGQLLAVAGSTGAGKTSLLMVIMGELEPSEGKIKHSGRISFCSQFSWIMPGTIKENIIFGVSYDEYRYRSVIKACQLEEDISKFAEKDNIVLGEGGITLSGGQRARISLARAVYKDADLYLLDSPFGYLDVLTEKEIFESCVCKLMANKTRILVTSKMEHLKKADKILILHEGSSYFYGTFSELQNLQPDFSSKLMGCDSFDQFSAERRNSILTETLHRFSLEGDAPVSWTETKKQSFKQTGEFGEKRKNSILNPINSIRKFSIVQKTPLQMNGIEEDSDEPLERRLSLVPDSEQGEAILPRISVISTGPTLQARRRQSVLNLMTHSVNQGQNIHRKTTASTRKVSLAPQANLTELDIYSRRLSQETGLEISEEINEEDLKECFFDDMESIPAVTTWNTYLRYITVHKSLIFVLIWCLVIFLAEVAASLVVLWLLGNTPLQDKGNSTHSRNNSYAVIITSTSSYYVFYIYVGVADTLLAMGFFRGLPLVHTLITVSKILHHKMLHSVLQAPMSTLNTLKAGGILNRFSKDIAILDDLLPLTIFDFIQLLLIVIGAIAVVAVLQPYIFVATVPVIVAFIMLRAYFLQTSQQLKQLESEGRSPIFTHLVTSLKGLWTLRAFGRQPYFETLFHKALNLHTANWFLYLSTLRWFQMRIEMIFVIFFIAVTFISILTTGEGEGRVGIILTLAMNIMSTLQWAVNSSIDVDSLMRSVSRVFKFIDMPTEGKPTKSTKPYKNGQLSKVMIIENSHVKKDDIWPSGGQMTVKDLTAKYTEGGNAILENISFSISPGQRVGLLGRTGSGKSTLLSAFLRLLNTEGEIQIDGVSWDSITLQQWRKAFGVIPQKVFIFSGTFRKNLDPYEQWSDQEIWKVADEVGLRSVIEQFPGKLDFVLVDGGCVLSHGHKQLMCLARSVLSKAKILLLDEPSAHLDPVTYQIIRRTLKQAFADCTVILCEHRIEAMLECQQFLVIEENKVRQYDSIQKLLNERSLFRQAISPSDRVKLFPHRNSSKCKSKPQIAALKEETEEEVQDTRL
UniProt Q13131: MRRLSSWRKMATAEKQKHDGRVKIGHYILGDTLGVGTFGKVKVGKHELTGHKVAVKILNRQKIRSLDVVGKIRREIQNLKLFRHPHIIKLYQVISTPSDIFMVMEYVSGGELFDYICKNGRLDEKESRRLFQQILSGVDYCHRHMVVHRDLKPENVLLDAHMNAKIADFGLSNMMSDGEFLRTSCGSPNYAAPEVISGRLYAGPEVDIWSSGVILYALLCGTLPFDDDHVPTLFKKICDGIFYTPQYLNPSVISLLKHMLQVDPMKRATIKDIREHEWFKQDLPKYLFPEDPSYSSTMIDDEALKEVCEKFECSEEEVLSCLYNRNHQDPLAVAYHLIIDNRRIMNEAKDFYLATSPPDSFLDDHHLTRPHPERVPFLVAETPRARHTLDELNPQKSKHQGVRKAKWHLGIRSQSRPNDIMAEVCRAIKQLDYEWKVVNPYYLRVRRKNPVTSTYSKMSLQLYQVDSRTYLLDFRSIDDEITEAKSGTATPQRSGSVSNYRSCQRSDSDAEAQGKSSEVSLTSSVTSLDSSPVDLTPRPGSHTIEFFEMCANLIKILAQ
UniProt P54646: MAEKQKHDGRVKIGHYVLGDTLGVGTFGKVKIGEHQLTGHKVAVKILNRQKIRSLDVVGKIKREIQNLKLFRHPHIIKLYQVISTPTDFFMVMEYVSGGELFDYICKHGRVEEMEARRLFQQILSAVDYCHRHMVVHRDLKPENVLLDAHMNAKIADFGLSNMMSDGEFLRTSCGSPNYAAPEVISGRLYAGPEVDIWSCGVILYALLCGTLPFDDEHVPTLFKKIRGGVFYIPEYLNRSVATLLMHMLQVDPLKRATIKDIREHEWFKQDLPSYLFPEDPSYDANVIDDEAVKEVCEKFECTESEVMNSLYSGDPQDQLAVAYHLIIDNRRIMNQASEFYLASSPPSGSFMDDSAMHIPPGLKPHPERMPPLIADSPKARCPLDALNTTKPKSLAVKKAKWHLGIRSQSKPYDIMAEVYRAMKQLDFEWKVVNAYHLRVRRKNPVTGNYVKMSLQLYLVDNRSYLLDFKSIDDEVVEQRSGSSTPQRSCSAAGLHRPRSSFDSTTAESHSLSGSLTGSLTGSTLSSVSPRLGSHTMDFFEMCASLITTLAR
UniProt P22392: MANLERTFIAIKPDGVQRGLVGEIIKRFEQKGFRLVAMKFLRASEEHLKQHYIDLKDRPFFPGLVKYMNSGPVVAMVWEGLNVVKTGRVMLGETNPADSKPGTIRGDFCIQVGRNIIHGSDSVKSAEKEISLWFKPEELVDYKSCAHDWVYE
UniProt P15531: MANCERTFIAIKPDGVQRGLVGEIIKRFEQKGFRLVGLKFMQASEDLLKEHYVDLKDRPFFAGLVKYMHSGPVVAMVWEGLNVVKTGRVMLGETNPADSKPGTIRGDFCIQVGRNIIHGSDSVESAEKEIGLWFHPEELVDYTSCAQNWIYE

These are yes or no findings as the source states them, for the method shown. For part of these data: In cells and extracts the contact can be indirect. Some entries that bind do so weakly or less than the wild type.

Regarding “human recombinant nucleoside diphosphate kinase B isoform (from UniProt P22392 2-152)”, the binding entry in [1] and in test [2] was “binds” throughout.
On to “nucleoside diphosphate kinase A (from UniProt P15531 1-152)”, for which the binding result in test [3], in [4] and in test [5] was “binds” throughout.
For “nucleoside diphosphate kinase B (from UniProt P22392 1-152)”, the binding entry in [3] is listed as “no binding”; in test [6] it was “no binding”; in test [7] it was “binds”; in [8], “binds”; in [9] it was “no binding”; in [5], “binds”.
With “cystic fibrosis transmembrane conductance regulator (from UniProt P13569 1-1480)”, the values for the binding entry in test [10], in test [11] and in [12] were “binds”, “no binding” and “binds”, respectively.
With “untagged NBD1 (351–727) (from UniProt P13569 351-727) (domain or fragment)”, the binding result in test [13] is on record as “binds”.

The values above are taken from paper PMC4780765.
